Data: PubChem BioAssay AID1454 (National Center for Advancing Translational Sciences (NCATS), 2008)
The campaign covered roughly 130,000 compounds. About 550 (0.42%) were called active. This list was built around the results that the source calls inconclusive (neither active nor inactive); the mix of calls is not that of the screen. The call rests on the fitted dose curve; in most records, active means well fitted inhibition curve with a large enough effect; inconclusive means small, poorly fitted or top-dose-only effect, or effect the other way; inactive means flat fitted curve, though single readings scatter. Potencies of inconclusive entries are left out as doubtful fits.

Assay: qHTS Assay for Inhibitors of the ERK Signaling Pathway using a Homogeneous Screening Assay; Stimulation with EGF; further: nearly all actives have a fitted effect of over 55% in size
Conditions: HEK293-V1b, EGF-stimulated phospho-ERK AlphaScreen
How it was run: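 Readout: AlphaScreen signal for phosphorylated ERK in lysed HEK293 cells stably expressing V1b. Stimulus 25 nM EGF, 5 min, following 30 min compound exposure. Data scaled to DMSO basal and full EGF activation.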
Potency means the concentration at half of the fitted maximal effect; tags describe the fitted curve by direction and shape.

**Q.** For `Cc1ccc(Nc2ccc(S(=O)(=O)N3CCOCC3)cc2[N+](=O)[O-])cc1C`, which Potency is on record?
**A.** The Potency was inconclusive [inhibitor, partial curve].

**Q.** Which Potency does the source give for `CC(=O)c1ccc(OCC(=O)c2cc(C)n(-c3ccc4c(c3)OCO4)c2C)cc1` here?
**A.** Its Potency is inconclusive [inhibitor, full curve].

**Q.** With `COc1cccc(/C=C/c2ccccn2)c1O` as the compound, how does the Potency read?
**A.** Its Potency is inconclusive [inhibitor, single point].

**Q.** For `COc1ccc(CCNC(=O)c2ccc(-c3ccc([N+](=O)[O-])cc3Cl)o2)cc1OC`, which Potency is on record?
**A.** Its Potency is inconclusive [inhibitor, single point].

**Q.** Which Potency does the source give for `Cc1csc(NC(=O)C2CCN(S(=O)(=O)c3ccccc3F)CC2)n1` here?
**A.** Its Potency is inconclusive [inhibitor, single point].

**Q.** For `COC1=C(Nc2ccccc2OC)C(=O)c2ccccc2C1=O`, which Potency is on record?
**A.** Its Potency is active: 14.1 µM.

**Q.** For `Nc1nc2c(cnn2CCc2ccccc2)c2nc(-c3ccco3)nn12`, which Potency is on record?
**A.** The Potency was inconclusive [inhibitor, partial curve].

**Q.** With `COc1ccc(CN(C(=O)c2ccco2)c2ccc(C)c(C)c2)cc1` as the compound, how does the Potency read?
**A.** Its Potency is inconclusive [inhibitor, partial curve].

**Q.** With `N#CC1=C(N)C(C#N)(C#N)C(c2ccncc2)C2CN(C(=O)OCc3ccccc3)CC=C12` (stereo not drawn) as the compound, how does the Potency read?
**A.** Its Potency is “inactive”.

**Q.** For `O=C(Nc1ccon1)c1ccc(N2CCCCC2)c([N+](=O)[O-])c1`, which Potency is on record?
**A.** The Potency was inconclusive [inhibitor, single point].

**Q.** Which Potency does the source give for `COc1ccc(CCn2c(N)c(S(=O)(=O)c3cccs3)c3nc4ccccc4nc32)cc1OC` here?
**A.** Its Potency is inconclusive [inhibitor, single point].

**Q.** Which Potency does the source give for `COc1ccccc1N1C(=O)C2C(C(=O)c3ccccc3)=NN(c3ccc(C)cc3)C2C1=O` (stereo not drawn) here?
**A.** The Potency was inconclusive [activator, partial curve].

**Q.** For `CCc1nn(-c2ccccc2)c(=S)c2ccccc12`, which Potency is on record?
**A.** The Potency was inconclusive [inhibitor, partial curve].

**Q.** For `CC(=O)c1sc(NC(=O)COc2ccc(C(C)C)c(C)c2)nc1C`, which Potency is on record?
**A.** The Potency was “inactive”.

**Q.** With `Cc1ccc(S(=O)(=O)N2CCN(C(=O)c3cccs3)CC2)cc1C` as the compound, how does the Potency read?
**A.** Its Potency is inconclusive [inhibitor, single point].

**Q.** With `O=C(Nc1ccc(Cl)cn1)C1CCN(S(=O)(=O)c2cccs2)CC1` as the compound, how does the Potency read?
**A.** The Potency was inconclusive [inhibitor, full curve, poor fit].

**Q.** For `CCCN1C(=O)/C(=C/c2c(N3CCNC(=O)C3CC(=O)OCC)nc3c(C)cccn3c2=O)SC1=S` (stereo not drawn), which Potency is on record?
**A.** The Potency was “inactive”.

**Q.** Which Potency does the source give for `COc1cc(-c2cc(=O)c3ccccc3o2)ccc1O` here?
**A.** Its Potency is inconclusive [activator, single point].
